Source: patent US20240124587A1 (ZHEJIANG DOER BIOLOGICS, published 2024)
Values belong to the binder of their own block, whether it stands above or below them.

What was measured:
TGFβ1 = TGFβ1 (UniProt P01137 in part); assay: cell-based or functional assay
VEGF = target: T1, VEGF (UniProt P15692-4 27-191, limits assumed); assay: cell-based or functional assay
T1 sequence (looked up): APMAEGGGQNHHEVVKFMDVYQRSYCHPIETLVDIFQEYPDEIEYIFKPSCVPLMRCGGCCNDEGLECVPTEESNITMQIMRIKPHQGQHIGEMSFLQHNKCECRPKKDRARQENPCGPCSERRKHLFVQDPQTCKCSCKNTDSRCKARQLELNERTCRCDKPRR

TGFβ1, sequence (P01137 279-390 limits assumed): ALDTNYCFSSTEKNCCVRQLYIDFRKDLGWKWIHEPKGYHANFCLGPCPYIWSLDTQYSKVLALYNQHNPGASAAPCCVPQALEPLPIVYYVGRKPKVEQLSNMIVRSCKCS

Anti-TGFβ activity (IC50, nM); luciferase reporter, TGFβ-4T1 cells stimulated with TGFβ1 (TGFβ1): 0.201 nM
Anti-VEGF activity (IC50, nM); luciferase reporter, HEK293-NFAT-KDR cells stimulated with VEGF (VEGF): 0.509 nM
B1: TAF-6 (other)
heavy: QVQLVESGGGLVQPGGSLRLSCAASGGTFITYAMGWFRQAPGKGLEFVAGISWSGSSTYYADSVKGRFTISRDNSKNTLYLQMNSLRAEDTAVYYCAAKISGATREHLRTSYDYWGQGTLVTVSSEVQLVESGGGLVQPGGSLRLSCAASGYTFTNYGMNWVRQAPGKGLEWVGWINTYTGEPTYAADFKRRFTFSLDTSKSTAYLQMNSLRAEDTAVYYCAKYPHYYGSSHWYFDVWGQGTLVTVSSASTKGPSVFPLAPSSKSTSGGTAALGCLVKDYFPEPVTVSWNSGALTSGVHTFPAVLQSSGLYSLSSVVTVPSSSLGTQTYICNVNHKPSNTKVDKKV[human IgG1 Fc omitted here]GGGGSGGGGSGGGGSGGGGSGIPPHVQKSVNNDMIVTDNNGAVKFPQLCKFCDVRFSTCDNQKSCMSNCSITSICEKPQEVCVAVWRKNDENITLETVCHDPKLPYHDFILEDAASPKCIMKEKKKPGETFFMCSCSSDECNDNIIFSEEYNTSNPD
light: DIQMTQSPSSLSASVGDRVTITCSASQDISNYLNWYQQKPGKAPKVLIYFTSSLHSGVPSRFSGSGSGTDFTLTISSLQPEDFATYYCQQYSTVPWTFGQGTKVEIKRTVAAPSVFIFPPSDEQLKSGTASVVCLLNNFYPREAKVQWKVDNALQSGNSQESVTEQDSKDSTYSLSSTLTLSKADYEKHKVYACEVTHQGLSSPVTKSFNRGEC

Anti-TGFβ activity (IC50, nM); luciferase reporter, TGFβ-4T1 cells stimulated with TGFβ1 (TGFβ1): 0.199 nM
Anti-VEGF activity (IC50, nM); luciferase reporter, HEK293-NFAT-KDR cells stimulated with VEGF (VEGF): 0.511 nM
B5: TAF-8 (other)
heavy: EVQLVESGGGLVQPGGSLRLSCAASGYTFTNYGMNWVRQAPGKGLEWVGWINTYTGEPTYAADFKRRFTFSLDTSKSTAYLQMNSLRAEDTAVYYCAKYPHYYGSSHWYFDVWGQGTLVTVSSASTKGPSVFPLAPSSKSTSGGTAALGCLVKDYFPEPVTVSWNSGALTSGVHTFPAVLQSSGLYSLSSVVTVPSSSLGTQTYICNVNHKPSNTKVDKKV[human IgG1 Fc omitted here]GGGGSGGGGSGGGGSGGGGSGIPPHVQKSVNNDMIVTDNNGAVKFPQLCKFCDVRFSTCDNQKSCMSNCSITSICEKPQEVCVAVWRKNDENITLETVCHDPKLPYHDFILEDAASPKCIMKEKKKPGETFFMCSCSSDECNDNIIFSEEYNTSNPD
light: QVQLVESGGGLVQPGGSLRLSCAASGRTFSTHSMGWFRQAPGKGLEFVAAINWNGDSTYYADSVKGRFTISRDNSKNTLYLQMNSLRAEDTAVYYCAARPGAPSTIVAMLDYWGQGTLVTVSSDIQMTQSPSSLSASVGDRVTITCSASQDISNYLNWYQQKPGKAPKVLIYFTSSLHSGVPSRFSGSGSGTDFTLTISSLQPEDFATYYCQQYSTVPWTFGQGTKVEIKRTVAAPSVFIFPPSDEQLKSGTASVVCLLNNFYPREAKVQWKVDNALQSGNSQESVTEQDSKDSTYSLSSTLTLSKADYEKHKVYACEVTHQGLSSPVTKSFNRGEC

Continued, binder first:

B2: TAF-6b (other)
heavy: QVQLVESGGGLVQPGGSLRLSCAASGGTFITYAMGWFRQAPGKGLEFVAGISWSGSSTYYADSVKGRFTISRDNSKNTLYLQMNSLRAEDTAVYYCAAKISGATREHLRTSYDYWGQGTLVTVSSEVQLVESGGGLVQPGGSLRLSCAASGYTFTNYGMNWVRQAPGKGLEWVGWINTYTGEPTYAADFKRRFTFSLDTSKSTAYLQMNSLRAEDTAVYYCAKYPHYYGSSHWYFDVWGQGTLVTVSSASTKGPSVFPLAPSSKSTSGGTAALGCLVKDYFPEPVTVSWNSGALTSGVHTFPAVLQSSGLYSLSSVVTVPSSSLGTQTYICNVNHKPSNTKVDKKV[human IgG1 Fc omitted here]GGGGSGGGGSGGGGSGGGGSTIPPHVQKSVNNDMIVTDNNGAVKFPQLCKFCDVRFSTCDNQKSCMSNCSITSICEKPQEVCVAVWRKNDENITLETVCHDPKLPYHDFILEDAASPKCIMKEKKKPGETFFMCSCSSDECNDNIIFSEEYNTSNPD
light: B1 light
Anti-TGFβ activity (IC50, nM); luciferase reporter, TGFβ-4T1 cells stimulated with TGFβ1 (TGFβ1): 0.213 nM
Anti-VEGF activity (IC50, nM); luciferase reporter, HEK293-NFAT-KDR cells stimulated with VEGF (VEGF): 0.54 nM

B3: TAF-6a (other)
heavy: QVQLVESGGGLVQPGGSLRLSCAASGGTFITYAMGWFRQAPGKGLEFVAGISWSGSSTYYADSVKGRFTISRDNSKNTLYLQMNSLRAEDTAVYYCAAKISGATREHLRTSYDYWGQGTLVTVSSEVQLVESGGGLVQPGGSLRLSCAASGYTFTNYGMNWVRQAPGKGLEWVGWINTYTGEPTYAADFKRRFTFSLDTSKSTAYLQMNSLRAEDTAVYYCAKYPHYYGSSHWYFDVWGQGTLVTVSSASTKGPSVFPLAPSSKSTSGGTAALGCLVKDYFPEPVTVSWNSGALTSGVHTFPAVLQSSGLYSLSSVVTVPSSSLGTQTYICNVNHKPSNTKVDKKV[human IgG1 Fc with changes omitted here]GGGGSGGGGSGGGGSGGGGSGIPPHVQKSVNNDMIVTDNNGAVKFPQLCKFCDVRFSTCDNQKSCMSNCSITSICEKPQEVCVAVWRKNDENITLETVCHDPKLPYHDFILEDAASPKCIMKEKKKPGETFFMCSCSSDECNDNIIFSEEYNTSNPD
light: B1 light
Anti-TGFβ activity (IC50, nM); luciferase reporter, TGFβ-4T1 cells stimulated with TGFβ1 (TGFβ1): 0.234 nM
Anti-VEGF activity (IC50, nM); luciferase reporter, HEK293-NFAT-KDR cells stimulated with VEGF (VEGF): 0.444 nM

B4: TAF-7 (other)
heavy: B5 heavy
light: QVQLVESGGGLVQPGGSLRLSCAASGGTFITYAMGWFRQAPGKGLEFVAGISWSGSSTYYADSVKGRFTISRDNSKNTLYLQMNSLRAEDTAVYYCAAKISGATREHLRTSYDYWGQGTLVTVSSDIQMTQSPSSLSASVGDRVTITCSASQDISNYLNWYQQKPGKAPKVLIYFTSSLHSGVPSRFSGSGSGTDFTLTISSLQPEDFATYYCQQYSTVPWTFGQGTKVEIKRTVAAPSVFIFPPSDEQLKSGTASVVCLLNNFYPREAKVQWKVDNALQSGNSQESVTEQDSKDSTYSLSSTLTLSKADYEKHKVYACEVTHQGLSSPVTKSFNRGEC
Anti-TGFβ activity (IC50, nM); luciferase reporter, TGFβ-4T1 cells stimulated with TGFβ1 (TGFβ1): 0.227 nM
Anti-VEGF activity (IC50, nM); luciferase reporter, HEK293-NFAT-KDR cells stimulated with VEGF (VEGF): 0.465 nM
